One assay deals with GST-DGKα (UniProt P23743). Briefly: pull-down; 293T cells co-transfected with GST-DGKα constructs and FLAG-WASp; glutathione beads pulled down the GST fusion from lysate (the legend says anti-GST antibody); western blotting. A general note: Immunoblotting shows a protein as a band on a membrane.
The target in the next assay is GST-DGKα E86* (UniProt P23743). The description is as above.
Another assay concerns the target myc-DGKα (UniProt P23743). Briefly: co-IP; 293T cells co-transfected, lysed after 48 hours in lysis buffer (25 mM HEPES, 150 mM NaCl, 1% NP40, pH 8.0); immunoprecipitation with anti-FLAG or anti-myc agarose and Protein G Sepharose at 4°C, six washes; western blotting.
For a further assay, the target named is FLAG-WASp (UniProt P42768). Described as above.
In a further assay the target is FLAG-WASp K232* (UniProt P42768). The description is as above.
In a further assay the target is FLAG-WASp Q297* (UniProt P42768). The assay is described as above.
In another assay the target is myc-FLAG-N-WASp (UniProt O00401). The assay is described as above.
The target of assay [1] is WASp (endogenous, human PBLs) (human (endogenous in PBLs)) (UniProt P42768). Briefly: proximity ligation; endogenous DGKα and WASp in isolated human PBLs on poly-L-lysine glasses, unstimulated or stimulated 15 minutes with anti-CD3 (UCHT1 10 μg/ml) and anti-CD28 (CD28.2 5 μg/ml), fixed and permeabilized; Duolink PLA, spots per cell counted.

Amino acid sequences for entries named in this document (tags omitted). A change or cut given only in a name is not applied to a line headed by its entry. Residues count along the entry.
UniProt P23743: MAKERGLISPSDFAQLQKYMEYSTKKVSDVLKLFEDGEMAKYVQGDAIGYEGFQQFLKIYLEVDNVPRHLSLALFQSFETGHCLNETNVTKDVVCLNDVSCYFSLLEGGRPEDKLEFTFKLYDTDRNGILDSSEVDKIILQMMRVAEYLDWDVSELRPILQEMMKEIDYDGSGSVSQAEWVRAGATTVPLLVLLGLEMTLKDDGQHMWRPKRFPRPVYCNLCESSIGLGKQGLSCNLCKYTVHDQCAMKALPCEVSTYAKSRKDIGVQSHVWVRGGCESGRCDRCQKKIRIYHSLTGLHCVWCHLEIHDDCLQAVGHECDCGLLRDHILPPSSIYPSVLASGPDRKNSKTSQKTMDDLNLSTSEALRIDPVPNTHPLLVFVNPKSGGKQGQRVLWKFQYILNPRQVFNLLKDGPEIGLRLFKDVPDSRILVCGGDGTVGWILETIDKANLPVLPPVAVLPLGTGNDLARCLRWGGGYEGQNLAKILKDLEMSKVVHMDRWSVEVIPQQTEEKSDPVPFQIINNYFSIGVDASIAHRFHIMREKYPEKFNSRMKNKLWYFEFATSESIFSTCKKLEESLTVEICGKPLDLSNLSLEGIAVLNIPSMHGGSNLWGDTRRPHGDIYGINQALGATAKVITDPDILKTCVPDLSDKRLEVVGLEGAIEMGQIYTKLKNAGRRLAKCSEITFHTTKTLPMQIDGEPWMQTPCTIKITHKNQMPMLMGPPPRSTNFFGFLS
GST-DGKα E86*: residues 1-85 of P23743
UniProt P42768: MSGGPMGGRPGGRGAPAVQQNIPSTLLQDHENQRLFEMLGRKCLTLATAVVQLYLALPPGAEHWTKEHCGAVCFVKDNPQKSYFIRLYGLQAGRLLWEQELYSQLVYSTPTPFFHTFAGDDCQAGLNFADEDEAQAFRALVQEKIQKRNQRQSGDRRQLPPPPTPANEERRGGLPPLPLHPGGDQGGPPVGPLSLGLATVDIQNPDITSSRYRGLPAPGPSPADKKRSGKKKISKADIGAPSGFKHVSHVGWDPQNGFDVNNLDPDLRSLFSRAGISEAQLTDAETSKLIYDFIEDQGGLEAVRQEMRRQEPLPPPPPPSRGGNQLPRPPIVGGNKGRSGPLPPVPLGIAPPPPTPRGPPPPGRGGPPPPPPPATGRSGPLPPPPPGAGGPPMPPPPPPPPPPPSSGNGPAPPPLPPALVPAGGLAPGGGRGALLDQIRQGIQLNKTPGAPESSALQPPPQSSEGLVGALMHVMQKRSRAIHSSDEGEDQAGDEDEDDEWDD
FLAG-WASp Q297*: residues 1-296 of P42768
FLAG-WASp K232*: residues 1-231 of P42768
UniProt O00401: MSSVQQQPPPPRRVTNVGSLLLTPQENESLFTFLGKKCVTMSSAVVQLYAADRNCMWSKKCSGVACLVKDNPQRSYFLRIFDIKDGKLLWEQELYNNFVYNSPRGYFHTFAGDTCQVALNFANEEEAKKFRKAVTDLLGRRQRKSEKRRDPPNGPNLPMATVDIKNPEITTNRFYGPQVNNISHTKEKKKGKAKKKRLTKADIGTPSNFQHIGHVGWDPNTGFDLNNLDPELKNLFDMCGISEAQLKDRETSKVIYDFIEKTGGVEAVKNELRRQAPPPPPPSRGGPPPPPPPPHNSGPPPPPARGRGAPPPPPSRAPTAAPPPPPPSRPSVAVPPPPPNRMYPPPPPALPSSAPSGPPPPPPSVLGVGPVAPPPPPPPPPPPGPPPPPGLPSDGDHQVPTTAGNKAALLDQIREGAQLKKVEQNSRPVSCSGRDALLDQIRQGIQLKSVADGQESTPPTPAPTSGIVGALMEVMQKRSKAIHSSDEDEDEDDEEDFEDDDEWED
UniProt P49619: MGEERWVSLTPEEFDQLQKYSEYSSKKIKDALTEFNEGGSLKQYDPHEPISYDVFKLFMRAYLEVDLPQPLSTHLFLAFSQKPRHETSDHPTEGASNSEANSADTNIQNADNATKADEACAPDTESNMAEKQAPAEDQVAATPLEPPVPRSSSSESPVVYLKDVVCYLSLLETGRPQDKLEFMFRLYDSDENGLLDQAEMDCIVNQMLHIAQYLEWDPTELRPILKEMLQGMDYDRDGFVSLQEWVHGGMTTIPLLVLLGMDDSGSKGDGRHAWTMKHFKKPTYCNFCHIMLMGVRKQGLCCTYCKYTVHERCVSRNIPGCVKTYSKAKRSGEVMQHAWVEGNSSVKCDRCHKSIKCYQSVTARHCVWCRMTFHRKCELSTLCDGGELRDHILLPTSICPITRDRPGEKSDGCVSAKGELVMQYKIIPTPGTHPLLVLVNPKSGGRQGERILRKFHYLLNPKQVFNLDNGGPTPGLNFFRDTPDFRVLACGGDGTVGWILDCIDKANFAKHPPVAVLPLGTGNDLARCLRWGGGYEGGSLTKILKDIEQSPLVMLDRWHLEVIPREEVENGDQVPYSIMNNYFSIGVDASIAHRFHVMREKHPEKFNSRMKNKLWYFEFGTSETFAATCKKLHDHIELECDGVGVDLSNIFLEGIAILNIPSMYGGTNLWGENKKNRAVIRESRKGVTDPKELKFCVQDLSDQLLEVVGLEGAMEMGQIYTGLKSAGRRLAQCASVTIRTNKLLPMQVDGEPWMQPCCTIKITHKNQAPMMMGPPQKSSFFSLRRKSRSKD

No constants are given. Whether binding was seen depends on the method and setting. In cells and extracts the contact can be indirect. Some entries that bind do so weakly or less than the wild type.

Consider FLAG-WASp (from UniProt P42768 1-502), for which the binding entry with GST-DGKα, in the assay with GST-DGKα E86* and with myc-DGKα was “binds” throughout.
As for “myc-DGKα (from UniProt P23743 1-735) (enzyme)”, the binding result is on record as “binds” with FLAG-WASp, “binds” in the assay with FLAG-WASp K232*, “binds” with FLAG-WASp Q297* and “no binding” with myc-FLAG-N-WASp.
For the substance “HA-DGKγ (from UniProt P49619 1-791) (enzyme)”, in the assay with FLAG-WASp, the binding entry is reported as “no binding”.
For the substance “myc-DGKα-L360* (from UniProt P23743 1-359) (domain or fragment)”, in the assay with FLAG-WASp, the binding result is reported as “binds”.
Regarding “DGKα (endogenous, human PBLs) (from UniProt P23743 1-735) (enzyme)”, the binding entry in assay [1] is given as “binds”.

For the origin of these results see PMC10149931.
